The full ranking holds about 110,000 compounds; the median of “z-score” is about -0.1, and the highest 2% start at about 2. Some of the results follow. The source made the active and inactive calls.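 How the source made its calls: active means z-score in the third read window above 3 or below -3; inactive means the rest.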
molecular target: Metabotropic glutamate receptor 8 (Rattus norvegicus) (UniProt P70579); assay: mGluR8 Gi/Go-coupled signaling modulation – cell-based, rat, thallium flux, HTS, primary screen (AID 488969); details: HEK293 rat mGluR8, GIRK (G protein-gated inwardly rectifying potassium channel) thallium flux, FluoZin2; at 10 µM; stronger effect = higher value; submaximal glutamate (EC20) added with thallium
UniProt P70579, sequence (P70579 whole entry, looked up): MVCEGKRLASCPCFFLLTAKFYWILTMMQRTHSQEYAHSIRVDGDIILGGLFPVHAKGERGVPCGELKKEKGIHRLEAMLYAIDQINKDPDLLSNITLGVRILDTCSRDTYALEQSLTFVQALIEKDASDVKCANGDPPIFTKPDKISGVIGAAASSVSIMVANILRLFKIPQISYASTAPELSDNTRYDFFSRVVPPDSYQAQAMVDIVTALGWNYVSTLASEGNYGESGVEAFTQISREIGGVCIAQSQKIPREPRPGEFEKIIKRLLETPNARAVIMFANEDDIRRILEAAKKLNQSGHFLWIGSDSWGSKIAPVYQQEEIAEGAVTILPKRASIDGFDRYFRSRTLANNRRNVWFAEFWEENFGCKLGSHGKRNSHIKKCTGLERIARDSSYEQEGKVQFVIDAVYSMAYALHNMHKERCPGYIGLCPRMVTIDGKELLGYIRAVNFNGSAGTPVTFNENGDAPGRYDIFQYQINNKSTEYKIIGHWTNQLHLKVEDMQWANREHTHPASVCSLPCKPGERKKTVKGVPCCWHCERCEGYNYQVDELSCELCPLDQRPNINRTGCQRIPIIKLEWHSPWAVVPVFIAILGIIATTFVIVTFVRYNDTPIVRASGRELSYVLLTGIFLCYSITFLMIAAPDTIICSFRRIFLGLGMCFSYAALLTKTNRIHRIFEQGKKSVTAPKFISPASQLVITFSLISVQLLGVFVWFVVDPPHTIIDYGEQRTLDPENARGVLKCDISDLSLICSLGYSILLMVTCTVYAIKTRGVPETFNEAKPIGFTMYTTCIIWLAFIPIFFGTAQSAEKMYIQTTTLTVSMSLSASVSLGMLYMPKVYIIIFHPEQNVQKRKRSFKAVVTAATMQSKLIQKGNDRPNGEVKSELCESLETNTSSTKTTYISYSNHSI

Row | Structure (SMILES) | z-score
1 | COc1cc(-c2cn(S(=O)(=O)c3cccc4nsnc34)nc2N)cc(OC)c1OC | -0.48
2 | COC(=O)c1c(NC(=O)CSc2nc3ccccc3c(=O)n2-c2ccccc2)sc(C)c1C | 0.0464
3 | Fc1ccc(-c2oncc2-c2nnnn2-c2ccccc2)cc1F | -0.128
4 | CC1CN(C(=O)c2c([N+](=O)[O-])cnn2C)CC(C)O1 (centres undefined) | -0.148
5 | O=C(NCCC1=CCCCC1)C1CCCN(S(=O)(=O)c2ccc(F)cc2)C1 (centres undefined) | -0.0388
6 | CCC1Oc2ccc(C)cc2N(CC(=O)NCCCN2CCCCC2CC)C1=O (centres undefined) | 0.21
7 | COC(=O)c1[nH]c2ccc(C)cc2c1NC(=O)CN1CCC(C)CC1 | -0.447
8 | CCc1ccc(NC2=NCC(=O)N2c2ccc3c(c2)OCCO3)cc1 | 0.581
9 | CN(C)c1cc(NC(=O)CN2CCOCC2)c2ccccc2n1 | 0.0658
10 | Cc1ccc(NC(=O)Nc2ncccc2C)cc1 | -1.32
11 | COCc1c(Br)c(C)nc(OCC(=O)N/N=C/c2cc(C)n(-c3ccc([N+](=O)[O-])cc3)c2C)c1C#N | 0.601
12 | O=C(CCCOc1ccccc1)N1CCCc2ccccc21 | -0.431
13 | Cc1cc(C)c2c(=O)[nH]c(SCC(=O)NCc3ccccc3)nc2n1 | -0.395
14 | Cc1nnc2sc(-c3csc4c3CCCC4)nn12 | -0.0897
15 | CC(c1ccccc1)C1CC(=O)N(CC(=O)O)C1=O (centres undefined) | 0.578
16 | CC(C)[C@H](NS(=O)(=O)c1ccccc1)C(=O)OCC(=O)Nc1ccccc1Sc1ccccc1 | 0.0146
17 | CC(=O)N1CCN=C1SCc1ccccc1 | -0.898
18 | CCCN1C(=O)C(O)(C2CC(=O)CC(C)(C)O2)c2ccccc21 (centres undefined) | -0.328
19 | COC(=O)c1ccc2c(=O)n(Cc3ccc(C(=O)NC4CCCC4)cc3)c(=S)[nH]c2c1 | 0.137
20 | CC(C)(C)NS(=O)(=O)c1ccc(NS(=O)(=O)Cc2ccccc2)cc1 | -0.00194
21 | CCCC1OC23CCCCC2C(C#N)(C(=N)O3)C1(C#N)C#N (centres undefined) | 0.553
22 | NC(=O)C1CCN(C(=O)CCc2nc3ccccc3c(=O)[nH]2)CC1 | -0.321
23 | COc1ccccc1N1CCN(C(=O)c2c(C)cc(=O)oc2C)CC1 | -0.139
24 | COc1ccccc1-c1nn2c(=O)cc(C)nc2s1 | 0.198
25 | Cc1cc(C)nc(Nc2ncc(O)n2-c2ccc(C)c(Cl)c2)n1 | 0.17
26 | CC1NC(=O)NC1CCCCCC(=O)NCCc1ccccc1 (centres undefined) | 0.551
27 | COc1ccc(C2C3=C(N=C4SCC(=O)N42)c2ccccc2CC3)cc1 (centres undefined) | -0.955

Row | Structure (SMILES) | z-score
28 | Cc1nc2cc(-c3ccc(Cl)cc3)nn2c(C)c1CCC(=O)NCc1ccco1 | -0.0434
29 | NC(=O)C1c2ccccc2CSc2ccccc21 (centres undefined) | -0.305
30 | CC1CCCN(C(=O)COC(=O)c2ccc[nH]c2=O)C1 (centres undefined) | 0.0234
31 | CC(=S)c1c(C)cc2cc(C)ccn12 | -0.235
32 | Cc1ccc(C(C(=O)NC2CCCC2)N(C(=O)Cc2cccs2)c2cccc(C)c2C)o1 (centres undefined) | -0.0917
33 | CCCCCCCCCCSc1n[nH]c(NC(C)=O)n1 | -0.0883
34 | Cc1[nH]n(C(N)=S)c(=O)c1N=Nc1ccc(S(=O)(=O)N2CCCCCC2)cc1 | 0.00773
35 | CC1CCCCC1NC(=O)C1CC=CCC1C(=O)O (centres undefined) | -0.15
36 | CCCCn1[nH]c(-c2ccccc2)cc1=O | -0.279
37 | N#CC(C#N)=Cc1cc2ccccc2nc1N1CCOCC1 | -0.253
38 | COc1cc2cnncc2cc1OC | active: 3.21
39 | O=C(CCC(=O)c1cccs1)Nc1ccc(F)c(F)c1F | 0.32
40 | CCOc1cc(/C=C/c2cc(C(=O)O)c3ccccc3n2)ccc1O | -0.427
41 | CCn1c(SCC(=O)Nc2cc(C)on2)nnc1-c1cccs1 | 0.713
42 | COc1cc2cc(Br)cc(Br)c2nc1C | 0.329
43 | CCOC(=O)c1c(-c2ccc(-c3ccccc3)cc2)csc1NC(=O)c1cccc(N2C(=O)CCC2=O)c1 | -0.196
44 | COc1cc2[nH]c(=O)n(Cc3ccccc3Cl)c(=O)c2cc1OC | -0.093
45 | O=C1C2C3C=CC(C3)C2C(=O)N1CNc1ccccn1 (centres undefined) | -0.247
46 | C=CCn1c(SCC(=O)Nc2nc(C)cs2)nnc1C(C)NC(=O)c1ccccc1Cl (centres undefined) | 0.00107
47 | CC(C)(C)c1ccc(-c2nnc3sc(-c4ccccn4)nn23)cc1 | -0.355
48 | O=C(Nc1ccccc1)OCN1C(=O)c2ccccc2C1=O | -0.2
49 | O=C(/C=C/c1c(F)cccc1Cl)NCc1ccco1 | -0.0574
50 | COCCNC(=O)C(=O)Nc1ccc(Br)cc1 | -0.315
51 | CCOC(=O)c1cnc2ccc(Cl)cc2c1NCCN(C)C | -0.278
52 | COCCOC(=O)c1sc(=S)n(CCOC)c1N | -0.268
53 | C=CCn1c(C)cc(C(=O)CSc2nc3ccccc3[nH]2)c1C | -0.0561
54 | CCOc1ccccc1C1C(C#N)=C(N)SC(N)=C1C#N | 0.194

From PubChem BioAssay AID488969 (Vanderbilt High Throughput Screening Facility, 2010)
